# Source: publication PMC4336329 (PLoS ONE, 2015)
# The campaign covered roughly 310,000 compounds. About 2,200 (0.71%) showed an effect of 50% or more. The effect is printed as a negative number. The list shows a part of the results.
# Molecular target: human ether-à-go-go-related gene (hERG) potassium channel (human, UniProt Q12809)
# Experiment: primary screen, population patch clamp on CHO cells stably expressing hERG
# Sequence of human ether-à-go-go-related gene (hERG) potassium channel (Q12809 whole entry, looked up): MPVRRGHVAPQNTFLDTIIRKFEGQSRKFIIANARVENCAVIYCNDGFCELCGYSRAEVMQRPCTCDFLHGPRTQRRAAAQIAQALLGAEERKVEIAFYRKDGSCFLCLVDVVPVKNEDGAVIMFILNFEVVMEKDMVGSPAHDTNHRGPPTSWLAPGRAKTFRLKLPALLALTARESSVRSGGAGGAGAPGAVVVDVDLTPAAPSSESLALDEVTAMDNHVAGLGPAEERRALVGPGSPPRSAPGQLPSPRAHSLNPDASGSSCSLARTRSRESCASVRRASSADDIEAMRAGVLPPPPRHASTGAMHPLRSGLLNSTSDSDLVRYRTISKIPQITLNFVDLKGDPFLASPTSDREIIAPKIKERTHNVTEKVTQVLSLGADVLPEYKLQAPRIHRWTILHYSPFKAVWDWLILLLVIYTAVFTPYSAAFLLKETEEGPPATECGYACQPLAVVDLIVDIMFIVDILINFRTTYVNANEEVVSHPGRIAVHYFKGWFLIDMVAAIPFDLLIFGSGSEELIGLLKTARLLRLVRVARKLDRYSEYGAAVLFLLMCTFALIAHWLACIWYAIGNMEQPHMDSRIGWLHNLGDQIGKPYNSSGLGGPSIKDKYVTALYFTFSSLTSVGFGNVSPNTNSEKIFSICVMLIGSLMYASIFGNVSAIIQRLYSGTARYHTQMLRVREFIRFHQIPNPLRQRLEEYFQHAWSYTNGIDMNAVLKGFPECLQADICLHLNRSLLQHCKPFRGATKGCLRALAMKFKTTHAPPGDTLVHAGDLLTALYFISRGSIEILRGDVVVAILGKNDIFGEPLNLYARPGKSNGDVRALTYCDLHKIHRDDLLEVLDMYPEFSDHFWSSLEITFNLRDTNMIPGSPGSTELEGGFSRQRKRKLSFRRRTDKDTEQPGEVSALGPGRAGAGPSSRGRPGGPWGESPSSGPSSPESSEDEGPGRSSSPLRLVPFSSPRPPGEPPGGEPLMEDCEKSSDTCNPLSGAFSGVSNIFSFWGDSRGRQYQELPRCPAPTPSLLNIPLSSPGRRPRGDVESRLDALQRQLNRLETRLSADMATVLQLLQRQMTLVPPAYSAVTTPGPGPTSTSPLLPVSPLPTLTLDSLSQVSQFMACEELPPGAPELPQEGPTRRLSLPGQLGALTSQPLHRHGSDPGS
row,SMILES,"hERG current change (%, negative = inhibition) at 1uM [%]"
1,Cc1ccc(Cl)cc1NC(=O)C1CCCN(S(=O)(=O)c2c(C)noc2C)C1 (stereo not shown),5.1
2,O=C(CSc1nnc(Cc2cccs2)n1Cc1ccco1)Nc1cc(Cl)cc(Cl)c1,-0.965
3,CC1CCN(Cc2nc3c(c(=O)n(C)c(=O)n3C)n2CCc2ccccc2)CC1,6.46
4,CCCC(=O)Nc1ncnc2c1ncn2[C@@H]1O[C@@H]2OP(=O)([O-])OC[C@H]2[C@H]1OC(=O)CCC.O.[Na+],-0.145
5,O=C(Nc1cc(C(F)(F)F)ccc1Cl)c1cc(C2CC2)on1,17.4
6,CC(C)N1CCN(C(=O)c2ccc([N+](=O)[O-])cc2)CC1,-5.58
7,COc1ccc(C(C#N)Nc2ccc(C)cc2)cc1 (stereo not shown),11.6
8,CC(C)(C)/C=N/NC(=O)C1CC1,12.8
9,Cc1nccn1S(=O)(=O)c1ccc(Br)cc1Br,7.99
10,CC(=O)c1ccccc1N(C(=O)c1ccco1)C(C(=O)NC1CCCC1)c1ccc(C)cc1 (stereo not shown),9.35
11,O=c1oc2ccccc2c(N2CCCCC2)c1CN1CCCCC1,4.58
12,O=C(CSc1nnc(CNc2ccc(F)cc2)n1CC1CCCO1)Nc1ccccc1 (stereo not shown),-5.15
13,Cc1ccc(CS(=O)Cc2ccc(C(=O)NCc3ccc(OC(C)C)cc3)o2)cc1 (stereo not shown),10.3
14,COc1cc(C(=O)NC(=S)N(CCc2ccccc2)CCc2ccccc2)cc(OC)c1OC,3.89
15,Cc1ccc(C)c(Cn2nnc3c(=O)[nH]c(C4CCCN(C(=O)CC(C)C)C4)nc32)c1 (stereo not shown),4.11
16,CCOc1ccc(CNS(=O)(=O)c2c(C)nc3sccn3c2=O)cc1OC,-33.9
17,COc1ccc(CCN(C)C(=O)C(CCSC)NC(=O)c2ccco2)cc1OC (stereo not shown),14.6
18,Cc1ccc(NC(=O)Cn2nc(-c3ccco3)ccc2=O)cc1Cl,14.3
19,COc1cccc(C(=O)NC(=O)Nc2cc(C)on2)c1,10.3
20,CCN(C(=O)C1CCN(S(=O)(=O)c2cccc3nonc23)CC1)c1ccccc1,10.6
21,CSc1cccc(NC(=O)COc2ccccc2)c1,-2.44
22,Cc1ccccc1N/C=C/C(=C(C#N)C#N)N(C)C,7.2

row,SMILES,"hERG current change (%, negative = inhibition) at 1uM [%]"
1,Cc1ccc(NC(=O)CSCc2cc(=O)n3ccsc3n2)cc1,11.1
2,Cc1ccc(OCCC(=O)OCC(=O)Nc2cc(C)nn2-c2ccccc2)cc1,-2.61
3,CN(CC1CCCCO1)C(=O)c1cc(COc2ccc(F)cc2Cl)on1 (stereo not shown),-74.4
4,Nc1nc(CC(=O)CSc2ccc(Cl)cc2)nc(Nc2ccc(F)cc2)n1,15.9
5,O=C(Nc1c2c(nn1-c1ccc(F)cc1)CS(=O)(=O)C2)c1ccc2c(c1)OCO2,-0.113
6,COc1ccc(-n2c(-c3ccc(Cl)cc3)c[n+]3c2CCCCC3)cc1.[Br-],8.19
7,Cc1cc(C(=O)N2CC(C)CC(C)C2)n(-c2ccccc2)n1 (stereo not shown),16.6
8,CN(C(=O)CC1C(=O)NCCN1Cc1ccccc1C(F)(F)F)C1CCOCC1 (stereo not shown),14.8
9,CC(=O)c1cn(Cc2ccccc2)c(=O)n(Cc2ccc(F)cc2)c1=O,11
10,CCCSc1ccc([C@H]2N[C@@](Cc3ccccc3)(C(=O)OC)[C@H]3C(=O)N(CC)C(=O)[C@@H]23)cc1.O=C(O)C(F)(F)F,-4.21
11,NC(=O)C1CCN(C(=O)COc2ccc3ccccc3c2)CC1,27.9
12,COc1ccc(OC)c(-c2cc(C(=O)Nc3c(C)n(C)n(-c4ccccc4)c3=O)no2)c1,5.21
13,CC(=O)c1ccc(N2CCN(c3ccc(C(N)=O)cc3[N+](=O)[O-])CC2)cc1,-2.91
14,CCOC(=O)N1CCN(S(=O)(=O)c2c(C)nc3sccn3c2=O)CC1,19.3
15,Cc1cccc(-n2c(C)cc(/C=N/n3cnnc3)c2C)c1,5.91
16,CN(c1ccccc1)S(=O)(=O)c1ccc(C(=O)N2CCCC2)cc1,12.2
17,O=C(NCCc1c[nH]c2ccccc12)OCCSS(=O)(=O)[O-].[Na+],11.1
18,Nc1cccc(Oc2ccc3c(c2)C(=O)NC3=O)c1,7.89
19,Cc1ccc(Sc2ncccc2COC(=O)NC(C)C)cc1,12.6
20,CC(C)CCNC(=O)NC(=O)COC(=O)CNC(=O)C1CCCCC1,8.56
21,CCCCN1CNC(=S)N(CCc2ccccc2)C1,-3.18
22,Cc1ccc(-n2ncc3c(=O)n(CC(=O)NCC4CCCO4)cnc32)cc1 (stereo not shown),5.75

row,SMILES,"hERG current change (%, negative = inhibition) at 1uM [%]"
1,Cc1ccc(NC(=O)COc2ccc(-c3nnco3)cc2)cc1S(=O)(=O)N1CCOCC1,4.98
2,CCOC(=O)C1CSC(CC(=O)Nc2ccc(OC(F)(F)F)cc2)C(=O)N1 (stereo not shown),-12
3,COC(=O)N/N=C(/c1ccccc1)C1CCCCC1,14.7
4,O=C(COc1ccc(S(=O)(=O)N2CCOCC2)cc1)NCCN1CCOCC1,13.5
5,Cc1cccc(NC(=O)C2CCN(S(=O)(=O)c3c(C)noc3C)CC2)c1,5.23
6,CCN(CC)S(=O)(=O)c1ccc(C(=O)NCCSc2c[nH]c3ccccc23)cc1,-4.65
7,CCOC(=O)c1ccc(NC(=S)NC2CCCC2)cc1,14.1
8,CCC(C(=O)NCCCN(CC)Cc1ccccc1)n1nc(C)c2sc3ccccc3c2c1=O (stereo not shown),-32.3
9,CCCCN(C(=O)CCCc1nc2ccccc2c(=O)[nH]1)c1c(N)n(CCCC)c(=O)[nH]c1=O,16.7
10,N/C(=N\OC(=O)Cc1ccccc1)c1cccnc1,-9.03
11,On1ccccc1=S,13.3
12,Cc1cc(C(C)(C)C)oc1C(=O)N(CC(=O)NC1CCCC1)Cc1ccccc1,14.3
13,Cl.Nc1nonc1C(=O)NCCNCc1ccccc1OCc1ccc(F)cc1,-9.35
14,Nc1nonc1-n1nnc(C(=O)N/N=C/c2ccncc2)c1CSc1ccc(Cl)cc1,36.7
15,Oc1ccc(N2CCN(Cc3c(-c4ccccc4)nc4ccccn34)CC2)cc1,-0.183
16,CCNC(=S)N1CCN(S(=O)(=O)/C=C/c2ccccc2)CC1,9.37
17,O=C(NCC(c1cccs1)N1CCOCC1)c1cccc([N+](=O)[O-])c1 (stereo not shown),0.76
18,COc1ccc(CCC(=O)NNC(=O)Cn2nc(C)cc2C)cc1,10.8
19,COc1nc(C)nc(Cl)c1NC1=NCCN1.Cl,13.8
20,C[C@@H](C(=O)Nc1nc2ccccc2s1)N1C(=O)C2CC=CCC2C1=O (stereo partly shown),10.5
21,CCc1ccccc1NC(=O)CCc1nc(-c2cccs2)no1,9.25
22,CC(=O)Nc1ccc(NC(=O)C2CC(=O)N(C(C)C)C2)cc1 (stereo not shown),13

row,SMILES,"hERG current change (%, negative = inhibition) at 1uM [%]"
1,COc1cc2c(cc1NC(=O)COC(=O)c1ccc(C(C)(C)C)cc1)oc1ccccc12,6.3
2,CC1CC(C)(C)CC2(C1)NC(=O)N(CC(=O)N(C)Cc1nc3ccccc3c(=O)[nH]1)C2=O (stereo not shown),2.77
3,Cc1c(C(=O)O)sc2nc(/C=C/c3cccc(O)c3)[nH]c(=O)c12,13.1
4,Cc1ccccc1-n1ncc2c1CC(C)(C)CC2NC(=O)c1snnc1C (stereo not shown),11.9
5,COc1ccc(S(=O)(=O)Cc2ccc(C(=O)N3CCN(c4ncccn4)CC3)o2)cc1,-5.55
6,Cc1ccc(CNC(=O)Cn2cccc2)cc1,14.9
7,O=C(Nc1cccnc1)c1ccc(C(=O)Nc2cccnc2)cc1,11.4
8,COc1ccc(CNC(=O)c2cccc(S(=O)(=O)N3CCN(C)CC3)c2)cc1,27
9,O=C(CSc1cn[nH]n1)Nc1ccccc1C(F)(F)F,17.3
10,CCOC(=O)N1CCN(C(=O)Cn2nc(C)n3nc(-c4ccc(CC)cc4)cc3c2=O)CC1,15.6
11,COc1cccc(NC(=O)COC(=O)CCC2CCCC2)c1,4.62
12,COc1cccc(NC(=O)C2CC(=O)N(Cc3ccc(C)cc3)C2)c1 (stereo not shown),3.03
13,Cc1nn(CC(=O)Nc2ccc(C#N)cc2)c(C)c1[N+](=O)[O-],-1.08
14,Cc1ccc(NC(=O)CN(C)Cc2nc3c(Br)cc(Br)cc3c(=O)[nH]2)cc1,12.7
15,Cc1ccc(C(=O)Nc2ccc(Cl)cn2)cc1S(=O)(=O)N1CCOCC1,-17.1
16,COc1ccc(-n2cc(CNCCCN3CCCC3=O)c(-c3ccccc3Cl)n2)cc1,-1.14
17,FC(F)(F)c1cc(-c2ccccc2)nc2ncnn12,10.2
18,CC(=O)CC(=O)Nc1cccc2c1CCCC2,8.29
19,Nc1c(-c2cccc(Cl)c2)cnn1-c1ccccc1,-0.925
20,COc1ccccc1N1CCN(C(=O)NC23CC4CC(CC(C4)C2)C3)CC1,14.4
21,Cc1ccc(C)c(NC(=O)CN(C)C(=O)COc2cccc3c2OC(C)(C)C3)c1,1.57
22,CCOc1ccc(OCCC(=O)NNC(=O)c2cc(C)oc2C)cc1,9.05
